Data on 167 variants can be found in the RNAGym collection of RNA variant scans (doi:10.7554/elife.90254).

Read counts are not given, so values of variants with three or more changes are uncertain.

The labels stand for the following.
B1: LINE1-full (parent)
chain: UACGUAGGUGGUUUUCCCCUGAUAGUGCUAAGGGGGCCUGGAAGUUUGGACUGGGCAGAGCUCAACACAGCGUGGCAAAGUGGCUGUGGCUAGACUGCCUCUCUGGAUUCCUCGUCACUCAGCAGGGCAUCUCUGAGAGAAAUGCC

The variants in the data set derive from B1. The experiment in a line: self-cleavage, relative activity (ratio to wild type); higher = more cleavage; in vitro, sequencing; the parent is a self-cleaving ribozyme.
Consider A6G G27U G40A U47A C51U U73A, for which the self-cleavage stood at 1.06.

For the variant U5C U20C A107U, the self-cleavage stood at 0.92.

Consider U5C U108C U134C, for which the self-cleavage is 0.66.

For U5C U13A U20C, the self-cleavage was 0.51.

Regarding A6G G7U A59U A94G U130C A141U, the self-cleavage amounted to 1.97.

A6G U12C U15C A30G U112A: the self-cleavage was determined as 0.

Consider A6G C113U A141G, for which the self-cleavage came out at 0.69.

As for A6G C28U G48A A78G, the self-cleavage was 0.4.

As for A6G A50U U91A A94G, the self-cleavage came out at 0.29.

Consider A6G A43U U91A, for which the self-cleavage was found to be 0.56.

As to A6G U26C A79G, the self-cleavage was 1.64.

A6G A43G C66U A77U A129U: the self-cleavage came out at 0.13.

With A6G A50G U102A, the self-cleavage turned out to be 0.9.

Take U5C U20C U100C: the self-cleavage amounted to 0.95.

Regarding U5C U20A U46A, the self-cleavage came to 1.67.

With A6G A22U A43U U96C U130A, the self-cleavage came out at 0.44.

As to U5C U87A U100C, the self-cleavage amounted to 0.08.

In the case of A6G U14C G49A, the self-cleavage stood at 0.56.

Regarding A6G G41U U87C, the self-cleavage worked out at 0.43.

As for U5C U20C U115C, the self-cleavage came out at 2.76.

Regarding A6G U14C U134C A140G, the self-cleavage amounted to 0.92.

In the case of U5C U23A U62A, the self-cleavage amounted to 0.19.

As for A6G U13A A42G A57G, the self-cleavage is 1.1.

For A6G U15C A78G U87A U130C A136G, the self-cleavage turned out to be 2.09.

For A6G G60U A117U, the self-cleavage was 0.15.

For the variant U5C U26A A77G A107G, the self-cleavage was found to be 1.95.

On to A6G G27A A31G A142G, for which the self-cleavage amounted to 1.1.

On to A6G U20G U47C, for which the self-cleavage stood at 0.

Turning to U5C U26C A77U, the self-cleavage is 1.02.

Turning to U5C U13C U52C A78G A121U, the self-cleavage was 0.46.

A6G A136U A138G: the self-cleavage is 0.

Turning to A6G U14C G105A A107G A117G, the self-cleavage amounted to 0.61.

On to A6G U26A A79G A121G, for which the self-cleavage is 0.

For the variant A6G A107U G114U, the self-cleavage worked out at 0.7.

Consider U5C U45C U62C, for which the self-cleavage is 0.13.

With A6G U12A U14A G60A U87C U132G, the self-cleavage worked out at 0.19.

Take A6G U12G U85C: the self-cleavage was determined as 0.

In the case of A6G U15C A69G U143C, the self-cleavage came to 0.61.

For A6G A42G C56U A78U A140G, the self-cleavage stood at 0.23.

Take A6G A43G U52A U62C A140G: the self-cleavage came to 0.25.

Regarding A6C G25A U47A A57U U62C A67G, the self-cleavage was determined as 0.11.

With U5C U26G C38U A42G, the self-cleavage was determined as 0.

For the variant U5C U102C A141G, the self-cleavage was determined as 1.5.

Regarding A6G U9C A57G, the self-cleavage worked out at 1.15.

U5C U13A U46C G135A: the self-cleavage worked out at 0.34.

Regarding U5C U15A U73A U104A, the self-cleavage came out at 0.7.

As for A6G U13C A50C G55A A57U A59G A92U, the self-cleavage was 0.47.

As for A6G A42G U81C, the self-cleavage turned out to be 1.17.

As to U5G U14C U130C, the self-cleavage came out at 0.69.

On to U5G U14C U130A, for which the self-cleavage came out at 0.37.

For the variant U5C U47C C103U A121G A138G, the self-cleavage turned out to be 1.15.

With A6G C38U U52A C63U G83C C146U, the self-cleavage was 0.34.

A6G A77G U108C: the self-cleavage came to 0.

In the case of A6C U73A U100C U134A, the self-cleavage came out at 2.74.

U5C U20G A42U A121U: the self-cleavage is 0.74.

Turning to U5C U81G U108A A129G, the self-cleavage amounted to 2.45.

As to U5C U112C G122U A140G U143C, the self-cleavage was 0.78.

A6G G8A U46A: the self-cleavage is 0.85.

Take A6G U9C U109C: the self-cleavage is 1.02.

Take A6G A94G G137U: the self-cleavage was determined as 0.62.

On to U5C U108C U119G, for which the self-cleavage is 1.97.

Turning to A6G U14C U52A A142G, the self-cleavage came out at 0.98.

Consider A6G A50U U81A, for which the self-cleavage is 1.3.

Turning to U5C U39C U143C, the self-cleavage is 0.36.

Regarding U5C U45A U87A U132A U134A, the self-cleavage was determined as 0.05.

On to A6G A42G A117U A142U, for which the self-cleavage is 0.

Take A6G G27A G60A: the self-cleavage was 0.09.

As to U5C U73G G125A, the self-cleavage stood at 0.81.

As to U5C U14C A30G A43G A59G A78U A79U U100C, the self-cleavage came out at 0.

Turning to A6G A59G A94G, the self-cleavage stood at 0.57.

For U5C U14C C17A U102C, the self-cleavage is 0.96.

For the variant U5C U73C A79G C120U A142G, the self-cleavage worked out at 0.8.

As to U5C U23A G32A C99U U104A A136U, the self-cleavage is 0.47.

As for A6G A30G A42G A65U A94G A140G, the self-cleavage is 2.3.

Take A6G A31G U96C U102C A142U: the self-cleavage was 0.

Consider A6G C51U U100A, for which the self-cleavage is 0.78.

For the variant A6G U12A U100A A121G, the self-cleavage was 0.

For A6G G8A U47C U62A A77U, the self-cleavage was determined as 0.34.

With A6C U9A U119C U132C A136G, the self-cleavage is 0.61.

Take U5C U13C U26C A77C A142G: the self-cleavage was found to be 0.71.

Consider U5C U20A U47G A136G, for which the self-cleavage stood at 1.08.

Turning to A6G A22G U23A A138U, the self-cleavage came out at 1.06.

Take A6G C101U A124G U134C: the self-cleavage was 1.97.

With A6G A78U U81A U134C, the self-cleavage came to 2.35.

In the case of A6G A57G U73C A140U, the self-cleavage came out at 0.84.

Take A6G U15A G36C A121U C131U: the self-cleavage is 1.15.

In the case of U5G A138G U143A, the self-cleavage was found to be 1.75.

Consider U5C U85C U134C, for which the self-cleavage came to 0.53.

On to A6G A30U U73G C90U, for which the self-cleavage came out at 0.19.

A6G A59G U108C: the self-cleavage was 0.68.

Take A6G G34A U47C U73C: the self-cleavage stood at 0.51.

In the case of A6G C17U A78G U130C, the self-cleavage amounted to 1.67.

Regarding U5C U14C U47C, the self-cleavage is 0.

As to A6G A92U A94G U109C, the self-cleavage was determined as 0.31.

As to U5C U15C U46A A136G A138G, the self-cleavage is 1.17.

Take A6G U13C A22U A42G C99U: the self-cleavage came to 0.4.

As to A6G U23C A50G U132C, the self-cleavage turned out to be 1.67.

Consider A6G U13C U115A U134G, for which the self-cleavage came to 0.7.

In the case of U5G U15A A43U C111U, the self-cleavage was 0.44.

For A6G U14C U85C, the self-cleavage turned out to be 1.02.

As for A6G U12G A67G U130C, the self-cleavage worked out at 0.

As for A6G A22G U62A C76U A79G U85C C128U A129G, the self-cleavage was 0.23.

Turning to A6G U12C G80A, the self-cleavage was found to be 1.29.

On to A6G U9C U52C A57U A77U G86A G89U, for which the self-cleavage was 0.

In the case of A6G U12A A43G U62A U108A C123A U143C, the self-cleavage came to 0.33.

As for U5G U20C U100C, the self-cleavage stood at 0.38.

For A6G A140G A142C, the self-cleavage came out at 0.59.

Take A6G U13C A78G U102A: the self-cleavage turned out to be 1.66.

In the case of U5C U109A A142G, the self-cleavage came out at 1.78.

For U5C U23C A57U U100C G106A U112A, the self-cleavage worked out at 0.09.

As to A6C U14C A79G C146A, the self-cleavage turned out to be 0.53.

In the case of A6G G10A A129C, the self-cleavage came out at 0.43.

Take U5C U13C A79G U115C: the self-cleavage amounted to 0.79.

As for U5G A67C A121U, the self-cleavage was found to be 0.37.

In the case of U5C U115A U132C A142G, the self-cleavage was found to be 2.26.

On to A6G U12C U102C, for which the self-cleavage is 0.61.

Take A6G G11C A136G: the self-cleavage was 1.25.

As for U5C U26A A50G U73A U115A, the self-cleavage amounted to 0.32.

As to A6G U23C U134G U143C, the self-cleavage is 0.

In the case of A6C U9A U119A, the self-cleavage is 0.96.

With A6G U26A A92U, the self-cleavage amounted to 0.69.

As for U5C U20A A59U U62C U96C, the self-cleavage came to 0.

In the case of U5C U20A U62A A117G A141G, the self-cleavage is 0.

With A6G A43U U132C U143C, the self-cleavage was determined as 0.4.

Take U5C U15C A69U U96G U104A: the self-cleavage amounted to 0.93.

On to A6G A50G A77U A94G C101A A136G, for which the self-cleavage was found to be 0.61.

Turning to A6G A31U C71U A138U, the self-cleavage was determined as 1.09.

Regarding A6G A79G A94U, the self-cleavage worked out at 0.57.

For A6G A78G U109A U115G, the self-cleavage was 0.47.

Take A6G U14C A42G: the self-cleavage stood at 0.77.

With U5C U115C U134C, the self-cleavage worked out at 0.94.

As to A6G U14A G55A A107G, the self-cleavage amounted to 0.15.

As to A6G G7A A64G U96C A140G, the self-cleavage came out at 0.44.

Regarding A6G G86A U119A, the self-cleavage came to 0.12.

Consider U5C U29G U85A G88A U132C A142U, for which the self-cleavage was 0.04.

On to A6G U39C A43G U62C, for which the self-cleavage turned out to be 0.

For the variant U5C U26A U47C U73A, the self-cleavage was 0.

For U5C U15A A77G U104A, the self-cleavage is 1.42.

For U5C U104C A117U, the self-cleavage stood at 2.4.

As to U5C U96C U134C, the self-cleavage turned out to be 0.

For U5C U52A U85A, the self-cleavage came to 0.15.

In the case of A6G A79G G80A A121G A124U, the self-cleavage was found to be 1.73.

For A6G U26A A57U, the self-cleavage came out at 0.3.

As for A6G G8U U12G G58A U91C U100C A141G, the self-cleavage was 0.

On to A6G U9A A124U A141G, for which the self-cleavage is 1.06.

On to U5C U73C A140G, for which the self-cleavage came to 2.3.

On to A6G A31U C84U, for which the self-cleavage stood at 0.31.

For A6G A30U C37U U104G, the self-cleavage came out at 0.38.

Turning to A6C U45C U47C, the self-cleavage was 0.42.

U5C U12G U39A A77G C95U: the self-cleavage came to 1.02.

U5C U14A C111U A136U: the self-cleavage is 1.28.

With U5C U13C U39A A57U A65U A117C, the self-cleavage was 0.

On to U5G A67G A141G, for which the self-cleavage is 0.87.

Take U5C U13C A59G A69G: the self-cleavage was determined as 0.

Consider A6G U12G U46C, for which the self-cleavage turned out to be 0.29.

As to A6G A50G A136G, the self-cleavage turned out to be 1.7.

With A6G A64G A69G U87A, the self-cleavage was determined as 0.44.

With U5C U73C C101A U115C U130A, the self-cleavage worked out at 2.51.

For the variant A6G U14C U26A U96A, the self-cleavage came to 0.08.

Turning to A6G U15A U62C A79G U85C, the self-cleavage came out at 0.

As to U5C U73C G89A, the self-cleavage stood at 0.07.

For A6G U15C A121G, the self-cleavage is 2.02.

For the variant A6G U39C A50G A141G A142G, the self-cleavage stood at 2.16.

A6G U26C U62C: the self-cleavage was determined as 0.

On to A6C U13C U73A U119C, for which the self-cleavage turned out to be 1.06.

For A6C A31U A67U U115C A142G, the self-cleavage is 0.5.

In the case of A6G A43G U115G U132A A138G, the self-cleavage stood at 0.35.
